Measured values: PubChem BioAssay AID1346428 (National Center for Advancing Translational Sciences (NCATS), 2018)
In all, about 48,000 compounds went through this assay and about 1,200 (2.5%) were called active. Another 2% or so got no clear call; they are omitted.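 The calls were made as follows: active = activation of at least 60% and not above a set upper limit (about 1 call in 100 departs from these limits); inconclusive = activation of 40% to 60%, or above that upper limit; inactive = activation under 40%.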 This is one part of the list.

molecular target: Probable G-protein coupled receptor 32 (Homo sapiens) (UniProt O75388); experiment: qHTS for Agonists of Human Resolvin D1 Receptor DRV1; details: CHO-K1 GPR32 beta-arrestin PathHunter luminescence, 90 min; at 76.9 µM; hits give high values; zero percent set by DMSO-only wells; also: 0% is about no effect
How it was run: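 Readings come from a cell-based beta-arrestin complementation format: CHO-K1 GPR32 stable cells (2,500/well) treated 90 min with compounds, then beta-Gal substrate added for 1 h before chemiluminescence imaging.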

UniProt O75388, sequence (O75388 whole entry, looked up): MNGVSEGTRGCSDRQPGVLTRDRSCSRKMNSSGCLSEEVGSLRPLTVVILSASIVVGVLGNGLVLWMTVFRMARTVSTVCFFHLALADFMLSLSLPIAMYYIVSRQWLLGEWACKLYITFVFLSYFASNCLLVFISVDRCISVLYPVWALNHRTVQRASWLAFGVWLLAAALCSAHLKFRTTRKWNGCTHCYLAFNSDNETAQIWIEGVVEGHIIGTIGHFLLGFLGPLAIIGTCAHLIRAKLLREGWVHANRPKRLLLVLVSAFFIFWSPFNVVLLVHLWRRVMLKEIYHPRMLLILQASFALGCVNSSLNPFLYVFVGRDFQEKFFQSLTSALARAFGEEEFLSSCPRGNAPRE

activation, inactive:
CCOc1ccccc1CNC(=O)CSc1nnc(C)c2c(C)n(-c3ccccc3)nc12 1.89%
CCCc1c(OCCCOc2ccc(OCC(=O)O)cc2)ccc(C(C)=O)c1O 10.9%
COc1cc2c(cc1NC(=O)COc1ccc(Cl)cc1)oc1ccccc12 -9.34%
COc1ccc(NC(=O)Cn2c(=O)n(Cc3ccco3)c(=O)c3oc4ccccc4c32)cc1Cl -11.9%
CC(=O)Nc1ccc(C(=O)Nc2ccc3c(c2)N(C2CCCC2)C(=O)c2ccccc2S3)cc1 3.21%
COc1ccc(-n2ncc3c2ncn2nc(Cc4ccccc4)nc32)cc1 -0.643%
Cc1ccccc1CNCc1c(C(=O)O)c(C)n(Cc2ccc(F)cc2Cl)c1C 14.8%
Cc1ccc(-c2noc(-c3nnn(-c4ccc(Br)cc4F)c3C)n2)cc1 -11.6%
O=C(Nc1ccc(F)cc1)c1cc2cc3ccc(Cl)cc3nc2o1 21.1%
Clc1ccccc1CN1CCc2nc(N3CCN(c4ncccn4)CC3)ncc2C1 -6.4%
Cc1cccn2c(=O)c(-c3nnn[nH]3)cnc12 -6.32%
Cc1nnc(N2CCC(C(=O)NC(C)C)CC2)c2nn(-c3ccccc3)c(C)c12 -0.72%
Cc1nc(-c2cccc(S(=O)(=O)N3CCC(C(=O)NCc4ccccc4Cl)CC3)c2)no1 17.3%
COc1ccc(-n2ncc(C(=O)NCCN3CCOCC3)c2C2CCN(C(=O)OC(C)(C)C)CC2)cc1 -8.74%
COc1ccc(OC)c(CCNC(=O)Cn2nc(C)n3c(cc4sccc43)c2=O)c1 -3.87%
CCc1c(C)sc2c1CCN(C(=O)Nc1cc(C)ccc1C)C2c1ccc(OC)cc1 (stereo not given) 9.9%
Cc1ccc(C)c(NC(=O)c2nnn(Cc3ccc(F)cc3Cl)c2N)c1 25.2%
Cc1cccc(CSc2nnc(CCCCCN)o2)c1 2.83%
Cc1cc(C)cc(NC(=O)c2cc(S(=O)(=O)N3CCCC3)ccc2F)c1 -12.2%
Cn1nc(-c2ccccc2F)c2cc(C(=O)NCc3cccc(Cl)c3)sc21 -0.437%
O=c1oc2ccc3ccccc3c2cc1-c1nnc(Nc2cccc(C(F)(F)F)c2)s1 -2.54%
COc1cc(OC)c(NC(=O)N2CCc3cc(S(=O)(=O)N4CCC(C)CC4)ccc32)cc1Cl -8.57%
CCC1Oc2ccccc2N(CC(=O)NCCc2ccc(OC)c(OC)c2)C1=O (stereo not given) -17.3%
O=C(NCCc1ccccc1)c1cnc2sc(N3CCCCC3)nn2c1=O 15.2%
O=C(c1cc2c(s1)-c1ccccc1OC2)N1CCN(c2ccc(F)cc2)CC1 -17.1%
COc1ccc(CCNS(=O)(=O)c2ccc(N3CCCCS3(=O)=O)cc2)cc1 -8.41%
NC(N)=[N+]1CCc2ccccc2C1 6.3%
COc1ccc(C)cc1Nc1c2c(nc3nc(-c4cccs4)nn13)CCCC2 17.9%
O=C(NCc1cccc(Cl)c1)C(=O)Nc1ccc2nc3n(c(=O)c2c1)CCCCC3 -2.78%
CCCCN1CCCc2cc(CN(CCCN3CCOCC3)C(=O)Nc3ccc(OCC)cc3)ccc21 44.1%
CCN(CC)S(=O)(=O)c1ccc2c(c1)N(CC(=O)N1CCN(c3ccccc3F)CC1)C(=O)CO2 -15.9%
COc1cc(Nc2nc3ccccc3c3nnc(C)n23)cc(OC)c1 -8.44%
CCN(C(=O)c1cc2c(s1)-c1ccccc1OC2)c1cc(Cl)ccc1OC -32.2%
CCOC(=O)c1ccc(Nc2ncnc3c2cnn3-c2cccc(Cl)c2)cc1 -8.36%
Cc1ccc(NC(=O)N2CCc3cc(S(=O)(=O)N4CCC(C)CC4)ccc32)cc1C -19%
CC1Cc2cc(S(=O)(=O)NCc3ccccc3Cl)ccc2N1C(=O)C1CCC1 (stereo not given) 19.5%
O=S(=O)(NCCS(=O)(=O)N1CCN(c2ccccc2F)CC1)c1ccc(Cl)cc1 -11.1%
Cc1ccccc1NS(=O)(=O)c1nnc(NC(=O)c2ccccc2C)s1 0.578%
CCN(CC)c1ccc(C(=O)N2CCC(c3c[nH]c4ccccc34)(c3c[nH]c4ccccc34)CC2)cc1 7.48%
COc1ccc(N2CCN(C(=O)CCn3c(=O)c4cccn4c4cccnc43)CC2)cc1 0.671%
CC(NC(=O)Nc1cc(Cl)ccc1Cl)c1c(-n2cccc2)sc2c1CCCC2 (stereo not given) -4.84%
CCOC(=O)c1ccc(NC(=O)c2ncn(-c3ccccc3)n2)cc1 -2.76%
Cc1ccc(-c2nc(-c3cc4cccc(OCc5cccc(C)c5)c4oc3=O)no2)cc1 19.1%
O=C(NC1CCN(Cc2ccccc2)CC1)c1ccc(Cn2c(=O)c3ccccc3n(Cc3ccccc3)c2=O)cc1 10.2%
CCc1c(C)nc2nncn2c1Nc1ccc(C(C)C)cc1 0.995%
Cc1ccc(NC(=O)/C(C#N)=C/c2cc(C)n(-c3ccc(F)cc3)c2C)cc1C 0.148%
CCc1ccc(NC(=O)Cn2c3ncccc3c(=O)n2-c2ccc(C)c(C)c2)cc1 -12.9%
O=C(c1ccc2c(c1)N(Cc1ccccc1F)C(=O)c1ccccc1S2=O)N1CCN(c2ccccc2)CC1 (stereo not given) 12.1%
Cc1ccc(CNC(=O)c2ccc(-n3cnc4cccnc43)cc2)cc1 8.82%
CCOc1ccccc1NC(=O)NCCn1c(=O)oc2ccc(C)cc21 20.4%
COc1ccc(-c2nc(-c3ccccc3)c(-c3ccc(O)cc3)[nH]2)cc1 -9.43%
COc1ccccc1CNS(=O)(=O)c1cc2c3c(c1)CCN3C(=O)CC2 12.5%
COC(=O)c1ccccc1NC(=O)Cn1nnc2sc(-c3ccccc3)cc2c1=O 47%
CCc1ccc(-c2nn(CC(=O)NC3CCCC3)c3c2cnc2ccc(F)cc23)cc1 -13.2%
COc1ccccc1C(=O)NCCn1cc(SCc2ccccc2Cl)c2ccccc21 -1.41%
